Experimental findings from PubChem BioAssay AID488969 (Vanderbilt High Throughput Screening Facility, 2010) are described below.

In all, about 110,000 compounds were measured (“z-score”: median about -0.1, highest 2% from about 2 on). This is one part of the list. Calls of active or inactive are those of the source.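 Rule for the calls: active = z-score in the third read window above 3 or below -3; inactive = the rest.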

The experiment deals with Metabotropic glutamate receptor 8 (Rattus norvegicus) (UniProt P70579). In words: rat mGluR8 modulators via GIRK flux, primary screen, cell-based, thallium flux, HTS (AID 488969). Conditions: HEK293 rat mGluR8, GIRK (G protein-gated inwardly rectifying potassium channel) thallium flux, FluoZin2; at 10 µM; stronger effect = higher value; submaximal glutamate (EC20) added with thallium.
Sequence of UniProt P70579 (P70579 whole entry, looked up): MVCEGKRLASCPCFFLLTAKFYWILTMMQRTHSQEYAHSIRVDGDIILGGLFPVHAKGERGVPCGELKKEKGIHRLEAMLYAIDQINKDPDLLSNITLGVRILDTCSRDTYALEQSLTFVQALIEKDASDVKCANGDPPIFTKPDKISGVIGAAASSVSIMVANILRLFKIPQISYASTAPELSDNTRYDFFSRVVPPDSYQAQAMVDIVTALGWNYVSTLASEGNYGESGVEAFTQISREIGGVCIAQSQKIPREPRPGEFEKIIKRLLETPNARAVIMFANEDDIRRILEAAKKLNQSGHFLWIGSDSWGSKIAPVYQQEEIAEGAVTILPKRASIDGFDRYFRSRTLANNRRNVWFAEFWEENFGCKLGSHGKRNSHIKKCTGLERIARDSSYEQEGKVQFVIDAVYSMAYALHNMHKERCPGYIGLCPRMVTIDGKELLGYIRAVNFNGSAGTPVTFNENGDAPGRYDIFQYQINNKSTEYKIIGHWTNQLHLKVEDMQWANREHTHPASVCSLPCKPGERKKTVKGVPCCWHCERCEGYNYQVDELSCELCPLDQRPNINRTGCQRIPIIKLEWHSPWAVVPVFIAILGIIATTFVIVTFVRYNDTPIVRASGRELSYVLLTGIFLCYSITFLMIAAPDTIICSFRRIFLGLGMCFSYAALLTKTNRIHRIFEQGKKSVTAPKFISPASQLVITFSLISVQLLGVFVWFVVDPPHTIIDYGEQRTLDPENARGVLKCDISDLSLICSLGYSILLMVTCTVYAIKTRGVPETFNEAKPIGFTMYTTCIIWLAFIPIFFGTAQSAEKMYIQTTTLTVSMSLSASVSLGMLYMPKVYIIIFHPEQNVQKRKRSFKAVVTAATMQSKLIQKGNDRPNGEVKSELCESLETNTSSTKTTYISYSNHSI
For the molecule `Cc1ccc(-c2ccc(=O)n(CC(=O)N3CCN(c4cc(Cl)ccc4C)CC3)n2)cc1`, the z-score was -0.335. The molecule `O=C(Nc1ccc2nc(-c3ccccc3)[nH]c2c1)c1ccco1` gave a z-score of -0.245. As to `CCN(CC)C(=O)CSc1nc2ccccc2c(=O)[nH]1`, the z-score worked out at 0.0717. To `CC(C)NC(=O)C12CC3CC(C1)CC(n1cnc(Cl)n1)(C3)C2` belongs -0.0733; to `CCOC(=O)c1[nH]c(C)c(C(=O)NC2CCCCCC2)c1C`, 0.781. `CCOc1ccc(NS(=O)(=O)c2ccc(NS(=O)(=O)c3ccc(SC)cc3)cc2)cc1` came in with a z-score of -0.428. For the molecule `O=C1NCCCC1C(=O)NCCN1C(=O)CCC1=O` (stereo not given), the z-score was -0.0595. To `CCC(=O)Oc1ccc2c(C)c(Cl)c(=O)oc2c1` belongs 0.414. The molecule `COc1cccc(C(=O)/C=C/Nc2ccc(S(=O)(=O)Nc3cccc(C(C)=O)c3)cc2)c1` had a z-score of -0.0714.

Molecule `COc1ccc(/C=N/NC(=O)C(=O)NCC2CCCO2)cc1` (stereo not given) yielded a z-score of -0.0895. As to `CCOC(=O)c1cc(CC)sc1NC(=O)c1ccc(N2CCOCC2)c([N+](=O)[O-])c1`, the z-score was 1.03. Turning to `O=CN(Cc1ccco1)C1(C(=O)NC2CCCCC2)CCCCC1`, the z-score worked out at 0.612. In turn, `CSc1nncc(=O)[nH]1` yielded a z-score of -0.0695.

Take `COC(=O)c1cnn2c(C(F)(F)F)cc(-c3ccccc3)nc12`: the z-score is -0.00832. With `CC(C)C1Oc2ccccc2N(CC(=O)N(Cc2ccncc2)Cc2ccco2)C1=O` (stereo not given), the z-score was -1.21. The molecule `COc1cc(/C=C2/SC(=S)N(CC(=O)NC(C)(C)C)C2=O)cc(OC)c1OC` registered a z-score of -0.148. `N#Cc1ccc(C(=O)Nc2cc(S(=O)(=O)Nc3ccc(Cl)cc3)ccc2N2CCCCC2)cc1`: the z-score is -0.309. `COC(=O)c1ccccc1Oc1nc(Cl)cc(OC)n1` showed a z-score of -0.22.

In turn, `O=C(COc1ccccc1)Nc1ccc2c(c1)nc1n2CCSC1` registered a z-score of 0.442. The molecule `COc1ccc(C2=NN(CC(=O)NCc3ccco3)C(=O)CC2)cc1` showed a z-score of 0.0232. Then `O=C(COC(=O)CCc1ccccc1)NC(c1ccccc1)c1ccccc1`, with 0.0993.

Turning to `CCN(CC)S(=O)(=O)c1ccc(C(=O)N2CCN=C2SCc2cccnc2)cc1`, the z-score was 0.0527.

In the case of `Cc1ccsc1C(=O)Nc1ccccc1N1CCOCC1`, the z-score was -0.204. The molecule `COc1ccc(/C=N/NC(=O)c2cc(-c3ccccc3OC)nc3ccccc23)cc1COC(C)=O` came in with a z-score of -0.25.

Consider `Cc1ccc(S(=O)(=O)NC(C)C(c2cccs2)N2CCN(c3ccccc3)CC2)cc1` (stereo not given), for which the z-score is -0.115. Turning to `CCOC(=O)C1CCN(CC(=O)c2c(C)[nH]c3ccccc23)CC1`, the z-score came to 0.0528. Then `Cc1cc(C)cc(Oc2coc3cc(OC(=O)c4cccs4)ccc3c2=O)c1`, with -0.0527; and `CN(C)c1cccc(NC(=O)CCc2ccccc2)c1`, with -0.123. For the molecule `Cc1cccc(N2CCN(C(=O)c3cnn4c(C(F)F)cc(-c5ccccc5)nc34)CC2)c1C`, the z-score is -0.067. With `Cc1ccc(/C=N/NC(=O)CSCc2ccc(Cl)cc2)cc1`, the z-score was 0.781. `O=C1CC(c2ccccc2)n2nc(NS(=O)(=O)c3ccccc3)nc2N1` (stereo not given) had a z-score of -0.413. Turning to `CCOc1ccc(C(=O)Nc2cc(OC)ccc2OC)cc1`, the z-score is -0.319. As to `O=C(NCCO)/C(=C\c1cccs1)NC(=O)c1cccs1`, the z-score was -0.122. `COC(=O)c1c(N)sc(C(=O)N2CCOCC2)c1C` displayed a z-score of 0.428.

The molecule `c1ccc2[nH]c(CSc3nc4ccccc4o3)nc2c1` displayed a z-score of 0.29. On to `O=C(c1ccc(Cl)c(S(=O)(=O)N2CCCCCC2)c1)N1CCN(c2ccccn2)CC1`, for which the z-score was -0.577. As to `Cc1csc(NC(=O)CSc2nnc(NC(=O)COc3ccc(Cl)cc3)s2)n1`, the z-score was -0.254.

Take `Cc1cc(NC(=O)CSC2=Nc3ccccc3C3=NC(Cc4ccccc4)C(=O)N23)n[nH]1` (stereo not given): the z-score is -0.232. As to `Cc1ccccc1NC(=S)N(CCCN1CCC(C)CC1)Cc1ccco1`, the z-score was -0.543. Molecule `CC1(C)OC(=O)C(=CNC(CCC(N)=O)C(=O)O)C(=O)O1` (stereo not given) came in with a z-score of -0.00703.

Turning to `COc1ccc2c(c1)C(=NNC(=O)c1ccccn1)c1cc(OC)ccc1-2`, the z-score turned out to be 0.188. As for `O=[N+]([O-])c1cccc(-c2nnc3ccc4ccccc4n23)c1`, the z-score is -0.335.

Consider `CC1(C)CC(=O)C2=C(C1)NCN(Cc1ccccc1)C2`, for which the z-score was 0.0758.

For `CCOC(=O)C1=C(C)C(c2ccccc2OC)NC(=S)N1` (stereo not given), the z-score is 0.345. As to `Cn1c(=O)c2c(nc(OCC3COC(C)(C)O3)n2Cc2ccccc2F)n(C)c1=O` (stereo not given), the z-score is -0.158. As to `COC(=O)c1cnn(-c2cc(Oc3cccc(C)c3)ncn2)c1N`, the z-score amounted to 0.309. Turning to `N#Cc1ncc(-c2ccc3c(c2)OCCOCCOCCOCCO3)nc1C#N`, the z-score came to 0.113. To `COc1ccc(-c2nc(CCNC(=O)c3ccc(Br)o3)cs2)cc1` belongs -0.301; to `c1cncc(-c2nc(N3CCOCC3)c3ccccc3n2)c1`, 0.113. `O=C(NCCC1=CCCCC1)C1CCN(S(=O)(=O)c2ccc(-n3cnnn3)cc2)CC1` yielded a z-score of 0.197.

`c1ccc2[nH]c(CSc3nc4ccccc4s3)nc2c1` came in with a z-score of -0.134. For the molecule `COc1nc(N/N=C/c2ccc(-c3cccc([N+](=O)[O-])c3)o2)nc(N2CCOCC2)n1`, the z-score is -0.387. As to `CCOC(=O)N1CCC(O)(c2cc(C)c(C)cc2C)CC1`, the z-score was -0.0446. For `CSc1ccccc1C(=O)NC1CCCCC1`, the z-score came out at 0.226.

The molecule `C=CCOC(=O)C1=C(C)NC(=O)NC1/C=C/c1ccccc1` (stereo not given) had a z-score of -0.0496. For `COc1ccc(C2CC(=O)c3c(C)nc(N4CCN(c5ccccc5)CC4)nc3C2)cc1` (stereo not given), the z-score was -0.418. Turning to `OC(CNCCc1ccccc1)c1ccccc1` (stereo not given), the z-score turned out to be 0.907. With `COc1cc2nc(NC(=O)c3ccc(Cl)cc3)[nH]c(=O)c2cc1OC`, the z-score is -0.173. On to `O=C(c1cnsn1)N1CCN(c2ccccn2)CC1`, for which the z-score was -0.358. As for `CCCCCCOc1ccc(-c2ccc(C#N)cn2)cc1`, the z-score was determined as 0.14. Molecule `O=C(Cc1ccccc1)N/N=C/c1ccccc1Cl` displayed a z-score of -0.243. As for `Fc1ccc(NC(=S)NCCc2ccc(Cl)cc2)cc1`, the z-score came out at 0.219. To `COc1ccc2c(c1)c(C(=O)CN1CCC3(CC1)OCCO3)c(C)n2C` belongs 0.936; to `Cc1noc(N)c1C(=O)Nc1ccc(F)c(Cl)c1`, 0.87; to `CCn1c(-c2cccc(Br)c2)n[nH]c1=S`, 2.35.

On to `O=C(Nc1ccc2c(c1)OCCO2)c1c(F)c(F)c(F)c(F)c1F`, for which the z-score came to 0.672. `CCOC(=O)COn1c(=O)c(-c2cc3ccccc3o2)[n+]([O-])c2ccccc21` came in with a z-score of -0.101.

`O=C(NCc1ccco1)c1sc2cccc(F)c2c1Cl`: the z-score is -0.653. For the molecule `CCOC(=O)COc1cccc2c(=O)n(CC(=O)N3CCc4ccccc43)ccc12`, the z-score is -0.265. To `Cc1ccc2c(c1)N(CC(=O)N(Cc1ccccn1)Cc1ccco1)C(=O)C(C(C)C)O2` (stereo not given) belongs active: -3.18; to `CCCCOC(=O)CSc1n[nH]c(=O)[nH]c1=O`, -0.957. `CCn1c(=O)c(C(=O)CN(C)Cc2cccc(OC)c2OC)c(N)n(Cc2ccccc2)c1=O` returned a z-score of 0.608. To `O=C(O)CCN(CCC(=O)O)c1nnc(SCc2ccccc2)s1` belongs 0.676; to `COC(=O)c1c(-c2ccc3ccccc3c2)csc1NC(=O)Cc1ccc(OC)c(OC)c1`, 0.271; to `CC(C)n1c(NCc2c[nH]c3ccccc23)nc2ccccc21`, -1.28.

`Cc1nc(SCC(=O)Nc2ccccc2C(F)(F)F)c(C#N)c(C)c1CC(=O)c1ccc(Br)cc1` registered a z-score of -0.15. The molecule `CCCCCCn1c(SCC(=O)c2ccccc2)nc2c1c(=O)[nH]c(=O)n2C` registered a z-score of 1.35.

In the case of `CN(Cc1ccccc1)c1oc(COc2ccccc2F)nc1C#N`, the z-score was -0.124.

Molecule `O=[N+]([O-])c1nn(-c2cccc(Cl)c2)n(O)c1=NCc1cccnc1` returned a z-score of -0.0198. For the molecule `COc1ccc(CCC(=O)N2c3ccccc3CC2C)cc1` (stereo not given), the z-score was -0.45. In the case of `CC(C)(C)C(=O)NC(=S)Nc1ccccc1C(=O)Nc1ccccc1`, the z-score was -0.079. Regarding `NC(Cc1ccc2nonc2c1)C(=O)O` (stereo not given), the z-score is 0.371. `CC(Sc1nnc(CNc2cccc3ccccc23)n1-c1ccccc1)C(=O)N/N=C/c1ccco1` (stereo not given) registered a z-score of -0.17. `CSc1nnc2c(n1)OC(c1ccc(C(=O)O)cc1)N(C(C)=O)c1ccccc1-2` (stereo not given) displayed a z-score of 0.0372.

The molecule `Cc1cc(=O)n2c(nc3ccccc32)[nH]1` had a z-score of -0.0225. `c1ccc(-n2nnnc2NC2CCCCCC2)cc1` showed a z-score of 0.167.

Turning to `CCOC(=O)c1[nH]c2cc(OC)c(OC)cc2c1NC(=O)c1nonc1C`, the z-score was determined as 0.176.

`COC(=O)c1c(NC(=O)C2COc3ccccc3O2)sc2c1CCN(Cc1ccccc1)C2` (stereo not given) came in with a z-score of 0.0786. For `O=c1c2cc(Cl)ccc2[nH]c(=S)n1Cc1ccco1`, the z-score is active: 16.1. `O=C(CCN1C(=O)C2C3C=CC(C3)C2C1=O)Nc1ccc2c(c1)OCO2` (stereo not given) displayed a z-score of 0.244. The molecule `COc1ccc(S(=O)(=O)Nc2ccc(O)c3ccccc23)cc1` registered a z-score of 0.394. As to `O=C(c1cnn2ccccc12)N(Cc1ccco1)C1CCCC1`, the z-score is -0.157. With `CC(=O)NCCCc1nc2ccccc2n1Cc1ccccc1C`, the z-score was -0.192. The molecule `COc1ccc(NC2=CC(c3cccc(OC)c3)N(c3ccc(OC)cc3)C2=O)cc1` (stereo not given) yielded a z-score of -0.196. Then `NC(=O)C1CCN(C(=O)CSc2nc3ccccc3s2)CC1`, with -0.237. On to `Cc1ccccc1CS(=O)(=O)c1cn(CC(=O)N2CCC(C)CC2)c2ccccc12`, for which the z-score was -0.0274. Molecule `COCCn1c(-c2ccc(OC)cc2)nc2oc3cc(OC)ccc3c(=O)c2c1=O` returned a z-score of -0.0423. As for `OCCn1c(C(F)(F)F)nc2ccccc21`, the z-score was -0.18. As for `Cc1cccc(Nc2nc3c(S(=O)(=O)c4ccccc4)nnn3c3ccccc23)c1C`, the z-score was -0.185.

Take `CCN(c1cccc(C)c1)S(=O)(=O)c1cnc[nH]1`: the z-score is 0.225. `Clc1ccc(C(c2nnnn2C2CCCC2)N2CCN(Cc3ccncc3)CC2)cc1` (stereo not given) registered a z-score of -0.586. Turning to `O=c1c(Cl)c(N2CCN(S(=O)(=O)c3ccc(F)cc3)CC2)cnn1-c1cccc(Cl)c1`, the z-score is -0.169. To `COc1ccc(OCC(=O)Nc2nc3ccccc3[nH]2)cc1` belongs 0.58; to `Cc1cc(Nc2ccc(C)c(F)c2)n2ncnc2n1`, -0.265; to `O=C(CSc1nc(C2CCCCC2)n(-c2ccccc2)n1)NCC(F)(F)F`, -0.201.

The molecule `CC(C)(C)c1ccc(S(=O)(=O)n2c(CN3CCOCC3)nc3ccccc32)cc1` had a z-score of 0.216. `Cc1sc(NC(=O)CCCC(=O)O)c(C#N)c1C`: the z-score amounted to 0.257. To `O=C(c1ccccc1)N1CCC(c2nc3c(nnn3Cc3ccco3)c(=O)[nH]2)CC1` belongs -0.734; to `CCCn1nc(C(=O)OCn2nnc3ccccc3c2=O)c2ccccc2c1=O`, -0.347. The molecule `CCc1nc(NCc2cccnc2)c2oc3ccccc3c2n1` showed a z-score of -0.638.
